Results on one molecule are retold here after patent publication US20250152759A1, “SINGLE-DOMAIN ANTIBODIES AND VARIANTS THEREOF AGAINST MET” (Wisconsin Alumni Research Foundation, priority 2023, published 2025).

Data set [1] deals with MET expressing HNSCC cells. Description: Flow cytometry of 1E7-Fc on HNSCC cell lines. Conditions: 100 nM. The data set is classed as cell-based, human. The protocol:
Western Blot was conducted to evaluate MET and phosphorylation of MET (p-MET) expression on a panel of HSNCC cell lines grown under normal growth cell culture. […] Breast cell line T-47D was identified to have no MET or p-MET expression (FIG. 9A). IHC staining of MET in the cell lines grown as xenografts confirmed our western blot findings, with only Detroit 562 showing significant MET staining (FIG. 9B). Flow cytometry was performed to confirm the specificity of our camelid antibody to MET.
Single cell suspension of each cell line was prepared by trypsinization. About 0.5×10^6 cells were incubated with 100 nM of 1E7-Fc for 30 min on ice. Then cells were washed and stained with 1 μg/mL Goat anti-Human IgG Fc, PE (eBioscience) for 30 min on ice in the dark. Cells were washed three times and resuspended in flow cytometry staining buffer (2% FBS and 0.1% NaN3 in PBS). Data was collected with the Attune Flow Cytometer (Thermo Fisher), and at least 10,000 viable cells were gated and analyzed with FlowJo.
On the technique in general: In flow cytometry, cells or beads pass a laser one at a time.

Data set [2] can be described thus: In vivo stability of 1E7-Fc, serum dilution ELISA on human MET. Also on record: species or system mice. Conditions: tail vein. The protocol:
An in vivo stability assay was performed to characterize the viability of 1E7-Fc to stay in the body for therapy and imaging applications. Nontumor bearing mice were injected with 1E7-Fc via the tail vein, and the blood was collected at different time points across a month. Serum was obtained from the collected blood and assessed for levels of residual 1E7-Fc that binds to human MET on a dilution ELISA. Appreciable binding occurred up to 1 week (FIG. 7D).
Five-week-old BALB/cJ white mice were purchased from Envigo for in vivo stability study. Mice were intravenously injected through the tail vein with 1E7-Fc (100 μg in 100 μl PBS). Mice were euthanized, and whole blood was collected at 10 different time points. Mouse sera were collected by centrifuging the whole blood at 1500×g for 10 minutes. The sera were then used in ELISA to evaluate their binding to human c-MET.

Data set [3] relates to MET, AKT and ERK phosphorylation. Description: Immunoblot of MET downstream signaling, Detroit 562 and T-47D. The data set is classed as cell-based, human. As for the experimental part: (§1) To determine if 1E7-Fc by itself was therapeutic and inhibited MET signaling, both cell proliferation assays and western blotting examining MET downstream signaling were evaluated in Detroit […] cell and T-47D as a negative control. The MET tyrosine kinase inhibitor capmatinib was used as a positive control for MET downstream signaling.
Cells were seeded in 10-cm dishes and treated with either control (i.e., PBS), 10 nM, or 100 nM 1E7-Fc when cells reached about 75% confluency, and then cells were harvested 4, 24, or 48 h after treatment. Capmatinib (5 nM) was used as a positive control for inhibition of MET signaling. Cell lysates were prepared as previously described (Könning et al. 2017). Equal amounts of protein were analyzed by sodium dodecyl-sulfate polyacrylamide gel electrophoresis (SDS-PAGE), transferred to polyvinylidene fluoride membranes, and probed with specific primary antibodies. Targets were detected with horseradish peroxidase (HRP)-conjugated secondary antibodies (BioRad) using Enhanced Chemiluminescence western blot substrates (Pierce) and imaged on a LI-COR Odyssey Fc. The specific antibodies are as listed: MET, phospho-MET (Tyr1234/1235), AKT, phosphor-AKT (Ser473), p44/42 MAPK (Erk1/2), phosphor-p44/42 MAPK (Erk1/2) *Thr202/Try204), GAPDH.
A general note: A western blot detects proteins with antibodies after separation by electrophoresis.

Another data set relates to MET expressing cells. Description: Flow cytometry of 1E7-Fc on NSCLC and HeLa cell lines. Conditions: 1 μg/mL, 1 h. The data set is classed as cell-based, human. The text has this: (§2) 1E7 was cloned into an Fc vector to create a bivalent human Fc construct, 1E7-Fc, with an increased molecular weight of 86.6 kDa. […] We confirmed that 1E7-Fc only binds to human MET by performing BLI with human MET and other human surface proteins. […] Two MET-altered NSCLC cell lines, EBC1 and UWLung 21, and two HeLa cell lines, wild type (HeLa WT) and MET knockout (HeLa MET KO), were stained with 1E7-Fc followed by a secondary antibody that was fluorophore labeled for flow cytometry. […] Live cell immunofluorescent imaging was next performed to determine whether 1E7-Fc was internalized in MET-altered NSCLC cell lines after binding to the MET receptor. The cells were incubated with a green CellMask Plasma Membrane Stain followed by treatment with Alexa Fluor™ 647-labeled 1E7-Fc. […] Distinct accumulation within the internal cellular components of MET expressing cell lines is indicative of the internalization of 1E7-Fc (FIG. 4C).
Cells were harvested with Trypsin for 5 minutes at 37C and 5% CO2. 1×10^6 cells per condition were incubated with 1 ug/mL of 1E7 Fc for 1 h on ice. Cells were washed and stained with 5 μg/mL Goat anti-Human IgG Fc, PE for 1 h on ice. Cells were washed three times and resuspended in flow cytometry staining buffer (eBioscience). Data was collected with the Attune Flow Cytometer (ThermoFischer), and at least 10 000 viable cells were gated and analyzed with FlowJo software.

Data set [4] deals with EBC-1, UW-Lung 21, HeLa WT and HeLa MET KO cells. Description: Cell proliferation assay (Cell Counting Kit-8), NSCLC and HeLa cell lines. Conditions: panel of four cell lines, 72 h treatment. The data set is classed as cell-based, human. The protocol: (§3) To determine if 1E7-Fc by itself was a therapeutic and inhibited MET signaling, as has been seen with other MET antibodies such as onartuzumab and emibetuzumab (De Mello et al. 2020), we performed a cell proliferation assay and Western blot to query effects of 1E7-Fc on cell behavior and downstream signaling pathways. Cell viability was measured using a panel of the same four cell lines. […] In contrast, treatment with the FDA-approved MET TKI, capmatinib, blocked MET, AKT, and ERK phosphorylation, as anticipated (FIG. 4B).
Cells were plated in 96-well plates at densities ranging from 3,000 to 6,000 cells per well according to each cell growth rate. Twenty-four hours after-plating, cells were treated with indicated doses of 1E7-Fc or control (PBS) and incubated for 72 h. After 72 h drug treatment, Cell Counting Kit-8 reagent was added (Dojindo Molecular Technologies) and absorbance measured at 450 nm on a SpectraMax i3 plate reader (Molecular Devices). The absorbance of treated wells was normalized to control wells and the half-maximal inhibitory concentration (IC50) values were calculated using GraphPad Prism.

Data set [5] relates to Detroit 562 and T-47D cells. Description: Immunofluorescent live cell imaging, Detroit 562 and T-47D. The data set is classed as cell-based, human. The protocol: Immunofluorescent live cell imaging was performed on high MET expressing cell line, Detroit 562, to assess the internalization of 1E7-Fc across the plasma membrane.
Cells were seeded into an eight-well chamber coverslip slide (#1.5 thickness) at approximately 40,000 to 80,000 cells per well depending on cell type. After incubating at 37° C. for 48 h, cells were stained with a green CellMask Plasma Membrane stain (C37608, Thermo Fisher Scientific) and blue Hoechst 33342 (62249, Thermo Fisher Scientific) in accordance with manufacturer procedure. The stained cells were then placed in a temperature- and CO2-controlled Tokei Hit Biochamber and imaged using a Nikon Ti2 Spinning Disk Confocal Microscope at an objective of 40X with excitation laser 405, 488, and 640 nM. At the beginning of the imaging sequence, cells were treated with 1 μM Alexa Fluor 647-labeled 1E7-Fc antibody (A20186, Thermo Fisher Scientific) for 15 min. The cell medium was then suctioned out and phenol red-free DMEM media was added (21-064-029, Thermo Fisher Scientific). Images were acquired immediately prior to treatment and every 5 min for the first 3 h post-treatment, and then every 30 min for the next 9 h. Images were processed using Nikon NIS-Elements imaging software and ImageJ.

The subject of data set [6] is Detroit 562 and T-47D cells. Description: Proliferation assay (Cell Counting Kit-8), Detroit 562 and T-47D. The data set is classed as cell-based, human. To be noted: 72 h, high concentrations. As for the experimental part:
as §1
Cells were plated in 96-well plates at densities ranging from 3,000 to 6,000 cells per well according to each cell growth rate. After overnight incubation, cells were treated with indicated doses of 1E7-Fc or control (PBS) and incubated for 72 h. After 72 h of drug treatment, Cell Counting Kit-8 reagent was added (Dojindo Molecular Technologies) and absorbance measured at 450 nm on a SpectraMax i3 plate reader (Molecular Devices). The absorbance of treated wells was normalized to control wells, and the half-maximal inhibitory concentration (IC50) values were calculated using GraphPad Prism.
For orientation: Tetrazolium assays rely on reduction of a dye to a coloured formazan, in cell work by metabolically active cells.

The subject of data set [7] is human MET and other human surface proteins. Description: BLI specificity of 1E7-Fc with human MET and other human surface proteins. The data set is classed as binding. To be noted: FIG. 4A.
Source text: as §2
Biolayer interferometry was done with the Octet R8 (Sartorius) instrument. Biotinylated human c-MET was captured on SAX (high precision streptavidin) biosensor. 1 to 4 serial dilutions of 1E7-Fc in 1% BSA starting at 1 μM were bound to the biosensor tip with c-MET.

Data set [8] relates to MET, AKT and ERK phosphorylation. Description: Western blot of MET signaling, NSCLC and HeLa cell lines. The data set is classed as cell-based, human. The protocol: as §3
Cells were seeded in 10 cm dishes and treated with either control (PBS), 10 nM, or 100 nM 1E7-Fc when cells were reached about 75% confluency, and then cells were harvested 4 h after treatment. Five nM Capmatinib was used as a positive control. Cell lysates were generated as previously described (SenthilKumar et al. 2020).

Data set [9] concerns MET expressing cell lines. Description: Live cell confocal microscopy, binding and internalization of 1E7-Fc. The data set is classed as cell-based, human. To be noted: 2 h post-treatment.
Source text: as §2
Cells were seeded into an 8 well chamber coverslip slide (#1.5 thickness) at approximately 20,000 to 40,000 cells per well depending on cell type. After incubating at 37C for 48 hours, cells were stained with a green CellMask™ Plasma Membrane stain (C37608, Thermo Fisher Scientific) in accordance with manufacturer procedure. The stained cells were then placed in a temperature and CO2 controlled Tokei hit Biochamber and set to be imaged every minute for 2 hours using a Nikon Ti2 Spinning Disk Confocal Microscope at an objective of 40x with 488 nm and 547 nm laser settings. At the beginning of the imaging sequence, cells were treated with 1 mM Alexa Fluor™ 647-labeled 1E7-Fc antibody (A20186, Thermo Fisher Scientific) for 10 m. The cell media was then suctioned out and phenol red free DMEM media was added (21-063-029, Thermo Fisher Scientific). Images were processed using Nikon NIS-Elements imaging software and ImageJ.

Entries after “also recorded” stand apart in the source; their conditions may differ. Bounds are passed on as bounds.

B1: 1E7-Fc: 1E7 VHH expressed as a bivalent human Fc fusion protein, SEQ ID NO:28 (protein)
chain: METDTLLLWVLLLLAAQPAMAAGSEVQLVESGGGLVQPGGSLRLSCEASGFNFERYDMSWVRQAPGKGPEWVSRLNSFGRSTYYLDSVKGRFTVSRDNAQNMLYLQMNNLKPEDTAVYYCARSTDVSPGLSSWWTYEYDVWGQGTQVTVSSGPGGQGTGPGGS[human IgG1 Fc with changes not spelt out]
modifications: bivalent Fc dimer
For B1, the “binding by flow cytometry” value was “high binding affinity and specificity; also recorded: higher binding” in [1] (Detroit 562 (high MET)); “minimal to no binding” in data set [1] (other low MET expressing cell lines); “selectively bind; also recorded: bound tightly” in the data set with MET expressing cells (EBC-1 (MET amplified)); “did not bind” with MET expressing cells (HeLa MET KO); “moderately” in the data set with MET expressing cells (HeLa WT); “selectively bind; also recorded: bound tightly” with MET expressing cells (UW-Lung 21 (MET exon 14 mutated)). In addition, in data set [2] (FIG. 7D legend, mice, serum dilution ELISA), the In vivo stability result was “around 3 days”. Also, in data set [2] (nontumor bearing mice, 100 μg), the “time up to which appreciable binding of serum 1E7-Fc to human MET occurred” value is “up to 1 week”. Besides, the “function on MET signaling pathway (agonist/antagonist)” value in [3] is “neither as agonist nor antagonist”. The “effect on MET phosphorylation or downstream signaling of AKT and ERK” value in data set [3] (10 nM or 100 nM, 4, 24 or 48 h) is “no inhibitory effects”. Also, the “effect on cell viability” value in data set [4] was “no effect on cell viability; also recorded: does not impact cell survival”. In data set [5] (Detroit 562), the “time after exposure up to which internalization was visualized” value is “up to 8 h”. In addition, the “time of exposure within which binding occurred” value in data set [5] (Detroit 562) is listed as at most 30 min. Also, the “clearance from cellular compartment” value in data set [5] (Detroit 562, by 12 h) was “rapid clearance”. Besides, in [5] (T-47D, negative control cell line), the binding and internalization entry is on record as “No binding nor internalization”. Moreover, in data set [6], the “effect on cell viability / cytotoxicity” value is on record as “no cytotoxic effects; also recorded: no impact on cell viability”. Further, the “binding specificity, MET versus other surface proteins” value in [7] is “binds specifically to MET; also recorded: binding only to MET”. Besides, in [8] (10 nM or 100 nM, 4 h), the “effect on phosphorylation of MET and downstream signaling of AKT and ERK” value was “did not impact”. In [8] (conclusion from proliferation assay and Western blot), the “biological effect on MET-expressing cells (agonist/antagonist)” value is listed as “no biological effect”. Further, the “cell surface binding and internalization” value in [9] (EBC-1, Alexa Fluor 647-labeled) is listed as “high binding to the cell surface (green) with internalization”; in data set [9] (HeLa MET KO), “no binding”; in data set [9] (HeLa WT) it was “some binding”; in data set [9] (UW-Lung 21, Alexa Fluor 647-labeled) it was “high binding to the cell surface (green) with internalization”.
